The supplement of paper PMC10126150
Values marked as one replicate rest on one cluster of the flow cell; about a third of the high ones do not repeat.

Tested on: ATP
Assay: switch fluorescence ratio, 500 uM ATP over buffer (Cy3 cluster intensity, sum of 5 cycles each) (fold (ratio)); higher = stronger signal-on switching upon ATP binding; sequences stand for … in TCGTCGGCAGCGTCAGATGTGTATAAGAGACAGTTTTTTTTTTTTTTTTTTTTTTTTT…TC
Settings: aptamer strand: ATP DNA aptamer (quencher-CACCTGGGGGAGTATTGCGGAGGAAGG + anchor), 100 nM annealed; ATP concentration: 500 uM; one replicate
How it was run: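 The fluorescence ratio divides summed target-cycle Cy3 intensity by summed buffer-cycle Cy3 intensity for each cluster and is averaged per switch-domain sequence. Cy3-labelled switching-strand clusters on a modified Illumina MiSeq flow-cell were annealed to 100 nM quencher-labelled ATP aptamer, then imaged in selection buffer and again after 15 min with 500 uM ATP at 22 °C. Five such cycles were run, with NaOH stripping and re-annealing between them, and clusters outside 100-1000 RFU were excluded.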
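Further: ATP exposure 15 min at 22 °C before imaging.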

Sequence | switch fluorescence ratio
AGTACCCCCA | 1.02
AGTACCTGGA | 1.19
AGTACGCGG | 0.962
AGTACGTTCG | 1.04
AGTACTACA | 1.01
AGTACTACTG | 1.07
AGTAGAGGTA | 1.01
AGTAGATATT | 0.98
AGTAGATTAT | 1.02
AGTAGCAAGT | 1.18
AGTAGCTGCG | 1.03
AGTAGGACAC | 1.02
AGTAGGCCA | 0.961
AGTAGGGAGG | 0.944
AGTAGGGATT | 1.2
AGTAGGTCTA | 0.918
AGTAGTCCAT | 0.931
AGTAGTGAGA | 1.01
AGTAGTGCCT | 1
AGTATAGGC | 0.956
AGTATATCCC | 0.993
AGTATCCGGG | 0.988

Sequence | switch fluorescence ratio
AGTATCGAGT | 0.985
AGTATCGTGG | 0.998
AGTATGCTTG | 1.1
AGTATTAGA | 1.05
AGTATTCAT | 1.03
AGTCAAGTAC | 1.88
AGTCACAGTT | 1.07
AGTCACTGGT | 0.988
AGTCAGGAGC | 0.982
AGTCAGGCCA | 1.03
AGTCAGGGTA | 0.972
AGTCAGTTAG | 1.02
AGTCATATAT | 1.02
AGTCATTCGA | 1.05
AGTCCAATCC | 1.09
AGTCCACGCT | 1.04
AGTCCCCAAA | 1.04
AGTCCCTATA | 1.04
AGTCCGGTTG | 1.06
AGTCCTCTGT | 0.99
AGTCCTGGAT | 0.989
AGTCGAGCCA | 1.02

Sequence | switch fluorescence ratio
AGTCGCCCGT | 0.996
AGTCGCCTGC | 1.19
AGTCGCTAGC | 1.01
AGTCGGACAC | 1.02
AGTCGGCTAA | 0.957
AGTCGGGCTG | 1.01
AGTCGGGGG | 0.999
AGTCGTTAGG | 1.05
AGTCTACCCT | 1.07
AGTCTACTAC | 1.09
AGTCTGTTAT | 0.988
AGTCTTGAT | 1.01
AGTGAAGCGC | 0.963
AGTGAAGTTC | 1.01
AGTGACAATA | 1.06
AGTGACCGGG | 1.03
AGTGAGACT | 1.01
AGTGATCCGG | 0.987
AGTGATGAAC | 0.979
AGTGATGTCC | 0.981
AGTGATTGAG | 0.973
AGTGCATTAA | 1.02

Sequence | switch fluorescence ratio
AGTGCCAGAT | 0.992
AGTGCGGGG | 0.988
AGTGCGTAGA | 1.02
AGTGGAGGCT | 1.01
AGTGGATGAA | 0.972
AGTGGGAACG | 0.991
AGTGGGGAGT | 0.987
AGTGGGTAAC | 1.01
AGTGGTGGA | 0.974
AGTGGTGTTA | 0.968
AGTGTAGTTT | 0.981
AGTGTCCCCT | 1.02
AGTGTCTAGT | 1.01
AGTGTGTGGT | 1.03
AGTGTGTTTC | 1
AGTGTTAACT | 1.01
AGTGTTACT | 0.985
AGTGTTAGAA | 1
AGTGTTAGCG | 1.1
